Measured values from PubChem BioAssay AID504832 (National Center for Advancing Translational Sciences (NCATS), 2011).
Among all 310,000 compounds or so, about 18,000 (5.8%) were called active. This list was built around the results that the source calls inconclusive (neither active nor inactive); the mix of calls is not that of the screen. Calls come from the whole dose curve; as a rule, active = well fitted inhibition curve with a large enough effect; inconclusive = small, poorly fitted or top-dose-only effect, or another doubt; inactive = no such curve, though single readings can be large or run the other way. Potencies of inconclusive entries are left out as doubtful fits.

Test: Primary qHTS for delayed death inhibitors of the malarial parasite plastid, 48 hour incubation
Settings: P. falciparum luciferase growth in erythrocytes; series mostly up to 28.7 µM
In short: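 A one-generation exposure of luciferase-tagged malaria parasites in RPMI 1640/Albumax erythrocyte culture, 37 C and 5% CO2. Inhibition is inferred from decreased luminescence after adding detection reagent.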
Potency is the fitted concentration of half-maximal effect; tags give direction and shape of the fitted curve.

Structure (SMILES)	Potency
O=[N+]([O-])c1ccc(C23CC4CC(CC(O)(C4)C2)C3)cc1	inactive
O=C(CCNC(=O)Cn1ccc2ccccc2c1=O)NCc1ccc(F)cc1Cl	inactive
CCOC(=O)c1cc(C(=O)c2cc(Br)ccc2O)coc1=N	inactive
N#Cc1ccc(OCc2nnc(SCC(=O)N3CCCc4ccccc43)n2-c2ccccc2)cc1	active: 14.7 µM
CC1CCN(CCNC(=O)c2ccc(NC(=O)C3CCCO3)cc2)CC1 (stereo not given)	inactive
O=[N+]([O-])c1ccc(O)c(Nc2ncnc3ccc(Br)cc23)c1	inconclusive [inhibitor, single point]
Cc1ccccc1NC(=O)c1ccc(S(=O)(=O)N(C)C)cc1	inactive
CC(=O)NC(CC(=O)OCC(=O)N1CCN(S(=O)(=O)c2ccc(C)cc2C)CC1)c1ccccc1 (stereo not given)	inconclusive [inhibitor, partial curve]
Cc1ccccc1NC(=O)CN1C(=O)NC(C)(CCc2ccccc2)C1=O (stereo not given)	active: 13.1 µM
Cc1cc(N2CCN(C)CC2)nc2ccc(NC(=S)NCCCN3CCc4ccccc4C3)cc12	inconclusive [inhibitor, partial curve, poor fit]
CCc1cc(=O)oc2c3c(cc(OCC(=O)NCc4cccnc4)c12)OC(C)(C)CC3	active: 9.28 µM
O=C(NCc1ccccc1)[C@@H]1C[C@H]1[C@@H](NP(=O)(c1ccccc1)c1ccccc1)c1ccccc1	inconclusive [inhibitor, single point]
CC(C(=O)NCc1ccc(F)cc1)c1ccc([N+](=O)[O-])cc1 (stereo not given)	inconclusive [inhibitor, single point]
Cc1ccc(OC(C)C(=O)Nc2ccc(S(=O)(=O)N3CCOCC3)cc2)cc1 (stereo not given)	inconclusive [inhibitor, partial curve, poor fit]
CCOC(=O)C(Sc1ncnc2c1sc1nc(N3CCOCC3)c3c(c12)CCCC3)c1ccccc1 (stereo not given)	active: 1.65 µM
CCC(=O)Nc1ccc(N2CCN(C(=O)c3cccs3)CC2)cc1	inactive
COc1cccc(Cn2c(NCc3cccnc3)nc3c2c(=O)n(C)c(=O)n3C)c1	inconclusive [inhibitor, partial curve, poor fit]
Cc1ccsc1/C=C1/NC(=O)N(Cc2ccc(F)cc2)C1=O	inconclusive [inhibitor, single point]
Cn1c(=O)c2c(nc(N3CCN(Cc4ccccc4)CC3)n2CCCc2ccccc2)n(C)c1=O	active: 3.7 µM
O=C(NCCN1CCc2ccccc2C1)C1CC(=O)N(C2CCCC2)C1 (stereo not given)	inconclusive [inhibitor, single point]
NC(=O)c1ccc(C(F)(F)F)n(Cc2c(Cl)cccc2Cl)c1=O	inconclusive [inhibitor, partial curve, poor fit]
CCC(Oc1ccccc1)C(=O)N(C)CC(=O)N(CC(C)C)c1c(N)n(CC(C)C)c(=O)[nH]c1=O (stereo not given)	inconclusive [inhibitor, single point]
O=C(NCCCN1CCOCC1)C(=O)N/N=C/c1ccccc1O	inconclusive [inhibitor, single point]

Structure (SMILES)	Potency
COc1ccc(C2c3ccc(O)cc3Oc3ncn4nc(-c5ccco5)nc4c32)cc1OC (stereo not given)	inconclusive [inhibitor, partial curve]
CCOC(=O)c1cnc2c(ccc3ccccc32)c1NCCCN(C)C	active: 4.15 µM
Cn1c(=O)c2c(nc(N3CCOCC3)n2CC(=O)C23CC4CC(CC(C4)C2)C3)n(C)c1=O	inconclusive [inhibitor, partial curve]
Cc1ccc(-n2c(/C=C/c3ccccn3)nc3ccccc3c2=O)cc1	inconclusive [inhibitor, partial curve, poor fit]
O=C(COC(=O)/C=C/c1ccc2c(c1)OCO2)NC1CC1	inactive
COCCN(C(=S)Nc1cccc(Cl)c1C)C(C)c1ccco1 (stereo not given)	inconclusive [inhibitor, single point]
CCC1SC(=NC(=O)c2ccc(Cl)c(Cl)c2)NC1=O (stereo not given)	inactive
O=S(=O)(c1ccccc1)N(Cc1nc(-c2ccccc2)no1)C1CCCCC1	inconclusive [inhibitor, single point]
Cc1cc(Cl)cc2c1NC(=O)[C@]21[C@@H]2C(=O)N(Cc3ccccc3)C(=O)[C@@H]2[C@@H]2CCCN21	inconclusive [inhibitor, single point]
Cc1cc(C)c(S(=O)(=O)N2CCN(c3ccc([N+](=O)[O-])c(-n4nc(C)cc4C)c3)CC2)c(C)c1	active: 4.15 µM
CCCS(=O)(=O)N1CCN(Cc2ccccc2OCC)CC1	inconclusive [inhibitor, partial curve, poor fit]
CCCCN1CC(=O)N2Cc3[nH]c4ccccc4c3C[C@H]2C1=O	inactive
CNC(=S)N1CCc2ccccc2C1	inconclusive [inhibitor, partial curve, poor fit]
COCC(=O)NC1CCN(C(=O)Nc2ccc(Br)cc2)CC1	inactive
Cc1cccc2c1-c1sc(C(=O)NCCCN3CCCC(C)C3)cc1CO2 (stereo not given)	inconclusive [inhibitor, full curve]
O=C(Cc1ccc(O)cc1)NCCNC(=S)NCc1ccccc1	inconclusive [inhibitor, single point]
COc1ccc(NC(=O)COC(=O)c2ccc(-n3cnnn3)cc2)cc1Cl	inactive
CC(=O)N1CCN(c2nc(C)nc3sc4c(c23)CCC(C)C4)CC1 (stereo not given)	inconclusive [inhibitor, single point]
COc1ccccc1N1CCN(C2CCCN(C(=O)c3cc(C)oc3C)C2)CC1 (stereo not given)	inconclusive [inhibitor, single point]
CC12CCC(C(=O)Nc3ccc(SC(F)F)cc3)(CC1=O)C2(C)C (stereo not given)	inactive
COc1ccccc1-c1nc(SC)n[nH]1	inactive
CC(C)n1cnc2c(Nc3ccc(C(=O)O)cc3)nc(Cl)nc21	inconclusive [inhibitor, single point]
